# Measured values as given in PubChem BioAssay AID2147 (National Center for Advancing Translational Sciences (NCATS), 2009).
# Among all 230,000 compounds or so, about 3,600 (1.6%) were called active. This list was built around the results that the source calls inconclusive (neither active nor inactive); the mix of calls is not that of the screen. Calls come from the whole dose curve; as a rule, active = well fitted inhibition curve with a large enough effect (not every such curve was filed as active); inconclusive = small, poorly fitted or top-dose-only effect, or another doubt; inactive = no such curve, though single readings can be large or run the other way. Potencies beside an inconclusive call are fits to weak or partial responses and may not hold up.
# Target: Lysine-specific demethylase 4E (Homo sapiens) (UniProt B2RXH2)
# Chain of UniProt B2RXH2 (B2RXH2 whole entry, looked up, the tested form may be a part): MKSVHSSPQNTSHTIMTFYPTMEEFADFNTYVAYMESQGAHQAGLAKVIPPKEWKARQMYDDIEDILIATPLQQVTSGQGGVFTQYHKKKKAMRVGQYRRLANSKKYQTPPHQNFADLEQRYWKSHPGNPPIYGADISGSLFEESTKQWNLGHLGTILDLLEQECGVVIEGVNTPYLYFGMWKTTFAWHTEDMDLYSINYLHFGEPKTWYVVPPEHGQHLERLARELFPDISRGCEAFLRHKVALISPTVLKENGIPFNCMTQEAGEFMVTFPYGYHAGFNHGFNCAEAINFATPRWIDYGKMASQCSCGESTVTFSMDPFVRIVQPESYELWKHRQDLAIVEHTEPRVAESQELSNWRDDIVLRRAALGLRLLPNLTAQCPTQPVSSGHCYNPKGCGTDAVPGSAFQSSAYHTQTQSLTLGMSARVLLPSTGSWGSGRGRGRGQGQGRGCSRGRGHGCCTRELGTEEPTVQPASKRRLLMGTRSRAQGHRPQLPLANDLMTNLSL
# Test: qHTS Assay for Inhibitors of Human Jumonji Domain Containing 2E (JMJD2E)
# Settings: JMJD2E catalytic domain, FDH-coupled NADH fluorescence (FDH is formaldehyde dehydrogenase); series mostly up to 57.1 µM; activity change, negative = inhibition: at the top concentration
# Note: nearly all actives have a fitted effect of over 50% in size.
# Potency is the fitted concentration of half-maximal effect; tags give direction and shape of the fitted curve.
# 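Throughout, for activity change, negative = inhibition: 0% = wells with enzyme and -100% = buffer wells without enzyme.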
Compound,Potency,"activity change, negative = inhibition"
CCOc1ccccc1Oc1c(C)oc2c(CN3CCN(C)CC3)c(O)ccc2c1=O,"inconclusive: 31.6 µM [inhibitor, partial curve]",–
O=C(Nc1cccc([N+](=O)[O-])c1)N1CCN(c2ccccc2)CC1,–,inactive: 6.82%
N/C(=N\OC(=O)c1cccc2ccccc12)c1ccncc1,"inconclusive: 39.8 µM [inhibitor, single point]",–
C=CCn1c(N)c(C(=O)NCCC2=CCCCC2)sc1=S,–,inactive: -13.6%
COc1ccc(-c2nc(=S)[nH][nH]2)cc1,"inconclusive: 28.2 µM [inhibitor, single point]",–
COc1ccccc1Cn1c(-c2ccccc2OC)nc2ccccc21,"inconclusive: 39.8 µM [inhibitor, single point]",–
COC(=O)c1ccccc1NC(=O)Nc1ncccc1C,"inconclusive: 25.1 µM [inhibitor, partial curve]",–
N[C@H](Cc1cc(I)c(Oc2cc(I)c(O)c(I)c2)c(I)c1)C(=O)O,–,inactive: -2.68% [at 25.5 µM]
CCCCn1c(-c2ccc(Cl)cc2)nc2c(=O)n(C)c(=O)[nH]c21,"inconclusive: 0.631 µM [inhibitor, full curve]",–
COc1cc(OC)c(NC(=O)/C=C/C(=O)O)cc1Cl,"inconclusive: 6.31 µM [inhibitor, single point]",–
C=CCc1ccc(OCCOCCN(C)C)c(OC)c1,"inconclusive: 39.8 µM [inhibitor, single point]",–
Nc1nc(=S)n(-c2ccccc2)[nH]1,"inconclusive: 39.8 µM [inhibitor, single point]",–
CSc1nc2ncc(C#N)cn2n1,"inconclusive: 2.24 µM [inhibitor, partial curve, poor fit]",–
COc1ccccc1Nc1nc(-c2c(C)nc3ncccn23)cs1,active: 15.8 µM,–
CC1(C)CC(=O)C(C=NCC(N)=O)=C(O)C1,"inconclusive: 35.5 µM [inhibitor, single point]",–
C=C1N(c2ccccc2)C(=O)OC1(C)C,–,inactive: -6.31%
COC(=O)Nc1c(C(=O)OC)cc(OC)c(OC)c1OC,"inconclusive: 28.2 µM [inhibitor, partial curve]",–
O=C1CC(c2ccc(O)c(O)c2)Oc2c1ccc(O)c2O (configuration not stated),active: 6.31 µM,–
Cc1onc(-c2c(Cl)cccc2Cl)c1NC(=O)NN(C)c1ccc([N+](=O)[O-])cn1,–,inactive: -3.11%
CC(=O)c1c(C)[nH]c(C(=O)OCC(=O)Nc2cc(C(F)(F)F)ccc2N2CCOCC2)c1C,"inconclusive: 35.5 µM [inhibitor, single point]",–
C/C=C/C1=Cc2ccccc2C(CC(=O)OC)N1C(=O)OC (configuration not stated),–,inactive: -10.9% [at 11.4 µM]
COc1ccc(OC)c(NS(=O)(=O)Cc2ccccc2)c1,–,inactive: -20.9%
COc1ccc(-c2cc(=O)c(C(=O)c3ccc(C)cc3)n[nH]2)cc1,"inconclusive: 4.47 µM [inhibitor, single point]",–
CN1CCN(c2nc(-c3cccs3)cc(C(F)(F)F)n2)CC1,"inconclusive: 35.5 µM [inhibitor, single point]",–
Cc1ccc(-n2c(=S)[nH]c3[nH]ncc3c2=O)cc1,–,inactive: -1.89%
COc1cccc(/C=N/Nc2nc3ccccc3[nH]2)c1O,active: 4.47 µM,–

Compound,Potency,"activity change, negative = inhibition"
O=C(C1CCCN1C(=O)c1cccs1)N1CCc2ccccc21 (configuration not stated),–,inactive: 10.8%
CCc1cccc(C)c1NC(=O)c1cc(C)oc1C,–,inactive: -2.54%
CN1CCc2c(sc3c2c(=O)n(-c2ccc(Cl)cc2)c2nncn32)C1,"inconclusive: 31.6 µM [inhibitor, single point]",–
Cn1cnnc1SCC(=O)Nc1ccc2nc(SCc3cccc4ccccc34)sc2c1,–,inactive: -1.01%
O=c1[nH]c2ccccc2n2c(-c3ccccc3)nnc12,"inconclusive: 20 µM [inhibitor, partial curve]",–
CC(=O)c1cc(F)c(N2CCN(C(=O)C(C)(C)C)CC2)cc1C,–,inactive: -1.43%
Nc1nc(SCC(=O)N2CCc3ccccc32)[nH]c(=O)c1-c1ccccc1,–,inactive: 9.57%
Cc1ccccc1C(=O)Nc1nc2c(C)csc2c(=O)s1,"inconclusive: 35.5 µM [inhibitor, single point]",–
COc1cc(C)c(CNC2CCCCC2)cc1C,–,inactive: -24.9%
CN(C(=O)COc1ccc(S(=O)(=O)N2CCOCC2)cc1[N+](=O)[O-])C1CCS(=O)(=O)C1 (configuration not stated),"inconclusive: 20 µM [inhibitor, partial curve]",–
CCN(CC)C(=O)/C=C/c1ccc(OC)c(S(=O)(=O)N2CCCCC2)c1,–,inactive: 2.5%
O=C(C1CCN(S(=O)(=O)c2ccc(-n3cnnn3)cc2)CC1)N1CCN(c2ccccc2)CC1,–,inactive: -3.26%
CC1CC(C)(C)NC(=S)N1CCC(=O)N1CCc2ccccc21 (configuration not stated),–,inactive: -7.7%
CCOC(=O)NN1C(=O)c2ccccc2NC1c1ccccc1O (configuration not stated),"inconclusive: 28.2 µM [inhibitor, partial curve]",–
CC(Cc1ccccc1)C(=O)NCc1ccccn1 (configuration not stated),inactive,–
O=C(OCn1nnc2ccccc2c1=O)C1CCCCC1,–,inactive: -20.5%
COC(=O)c1ccccc1NC(=O)Cn1ccnc1,"inconclusive: 39.8 µM [inhibitor, single point]",–
CC(C)Cc1ccc(C#N)c(SCC(N)=O)n1,–,inactive: -6.85%
CCOC(=O)C(=O)Cc1nc2ccccc2s1,"inconclusive: 1.12 µM [inhibitor, single point]",–
COc1ccc(C2c3[nH]c4ccccc4c3CCN2CCCn2cccn2)c(F)c1 (configuration not stated),"inconclusive: 31.6 µM [inhibitor, partial curve]",–
C=CCn1c(CCC(O)CCCCC)n[nH]c1=S (configuration not stated),–,inactive: 3.44%
C=CCN1C=C2C(=O)C(C)(OC(=O)CC)C(=O)C=C2C=C1CCCC (configuration not stated),–,inactive: -4.51% [at 11.4 µM]
CC(Nc1oc(-c2ccco2)nc1C#N)c1ccccc1 (configuration not stated),"inconclusive: 25.1 µM [inhibitor, partial curve]",–
COc1ccccc1-c1cc2ccccc2[nH]1,"inconclusive: 25.1 µM [inhibitor, partial curve]",–
CN(Cc1ccccc1)C(=O)C1CCCN1S(=O)(=O)c1ccc2c(c1)n(C)c(=O)c(=O)n2C (configuration not stated),"inconclusive: 31.6 µM [inhibitor, single point]",–
O=C(Nc1nnc(-c2ccco2)o1)c1cccc2ccccc12,–,inactive: 1.53%
